We go through 86 compounds from PubChem BioAssay AID1346428 (National Center for Advancing Translational Sciences (NCATS), 2018).

The whole screen tested about 48,000 compounds, of which about 1,200 (2.5%) were called active. Roughly 2% stayed inconclusive and do not appear here.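 Rule for the calls: active = activation of at least 60% and not above a set upper limit (about 1 call in 100 departs from these limits); inconclusive = activation of 40% to 60%, or above that upper limit; inactive = activation under 40%.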 The list shows a part of the results.

Chain of UniProt O75388 (O75388 whole entry, looked up): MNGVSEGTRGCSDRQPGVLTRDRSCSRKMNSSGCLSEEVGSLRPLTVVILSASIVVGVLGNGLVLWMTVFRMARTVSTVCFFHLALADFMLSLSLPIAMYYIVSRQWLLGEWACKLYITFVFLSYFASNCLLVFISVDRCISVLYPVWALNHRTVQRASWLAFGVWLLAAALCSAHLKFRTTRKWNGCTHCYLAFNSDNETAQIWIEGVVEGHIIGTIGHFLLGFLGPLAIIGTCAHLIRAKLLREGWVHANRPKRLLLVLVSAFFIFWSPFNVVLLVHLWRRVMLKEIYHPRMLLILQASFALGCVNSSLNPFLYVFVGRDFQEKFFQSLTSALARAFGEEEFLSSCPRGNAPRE

The assay concerns the target Probable G-protein coupled receptor 32 (Homo sapiens) (UniProt O75388). In words: qHTS for Agonists of Human Resolvin D1 Receptor DRV1. The conditions noted are these: CHO-K1 GPR32 beta-arrestin PathHunter luminescence, 90 min; at 76.9 µM; hits give high values; zero percent set by DMSO-only wells. A digest of the protocol:
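Beta-arrestin recruitment read-out: luminescence from complemented beta-Gal in CHO-K1 GPR32 PathHunter cells, measured 1 h after detection reagent at ambient temperature following 90 min compound exposure at 37 °C; DMSO served as basal (EC0) control.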
Background: In qHTS, concentration-response curves come from the screen itself.
On to `Cc1ccc(CCNc2ncnc3onc(-c4ccc(F)cc4)c23)cc1`, for which the activation was inactive: -4.39%.

`Cc1oc2c(cc(NS(=O)(=O)c3ccc(C(C)C)cc3)c3ccccc32)c1C(=O)O`: the activation is inactive: 47.5%.

Consider `CC(=O)Nc1ccc(S(=O)(=O)N2CCC(c3nnc(-c4ccc(C)cc4)o3)CC2)cc1`, for which the activation is inactive: 13.1%.

On to `CC(C)C(=O)N1c2nc(-c3ccco3)nn2C2(CCCCC2)[C@@H]2CCCC[C@@H]21`, for which the activation was inactive: -13.9%.

In the case of `Cc1ccc(S(=O)(=O)c2[nH]c(-c3ccccc3)nc2SCC(N)=O)cc1`, the activation is inactive: 12.8%.

On to `COc1ccc(NC(=O)CCn2c(=O)c3cccn3c3cccnc32)cc1Cl`, for which the activation is inactive: -12.8%.

For `O=C(Cn1c(=O)n(CCCS(=O)(=O)C2CCCCC2)c(=O)c2ccccc21)Nc1ccccc1C(F)(F)F`, the activation was inactive: -9.32%.

Turning to `Cc1ccc(C)c(N2CCN(C(=O)CCS(=O)(=O)c3cc4c(cc3Cl)NC(=O)CO4)CC2)c1`, the activation is inactive: 23.4%.

Regarding `CCOC(=O)N1CCN(C(=O)c2c(C)nn(-c3cccc(C)c3)c2-n2cccc2)CC1`, the activation was inactive: 0.0635%.

Consider `COc1ccccc1CNS(=O)(=O)c1ccc2c(c1)CC(=O)N2C`, for which the activation was inactive: -18.8%.

As for `COC(=O)c1sc2ncccc2c1-n1c(C)ccc1C`, the activation was inactive: -16.9%.

On to `CCCSc1nnc2c(n1)OC(c1ccc(Br)s1)Nc1ccccc1-2` (stereo unspecified), for which the activation was inactive: -6.81%.

In the case of `COc1ccc(-n2ncc3c2ncn2nc(COc4ccc(Cl)cc4)nc32)cc1`, the activation was inactive: -18.1%.

In the case of `COc1ccc(CNC(=O)C2=C(C)C(=O)OC23CCCCC3)cc1`, the activation was inactive: -14.8%.

Consider `O=C(NCc1ccc2c(c1)CCN2C(=O)c1ccccc1)c1ccccc1`, for which the activation was inactive: -17.1%.

As for `Cc1ccc2oc3c(c(=O)c2c1)C(c1ccccc1F)N(CCCN(C)C)C3=O` (stereo unspecified), the activation is inactive: -6.89%.

For the compound `CCOc1ccccc1NC(=O)C(CC)Sc1nc2ncccc2[nH]1` (stereo unspecified), the activation was inactive: -7.61%.

For `Cc1ccc(-n2ncc3c(N4CCC(C(N)=O)CC4)ncnc32)cc1`, the activation was inactive: -10.4%.

For `O=C(Cn1ncc2ccsc2c1=O)N1CCN(c2ccc(F)cc2)CC1`, the activation is inactive: 19.4%.

For the compound `CCC1CN(C(=O)Nc2cccc3c2CCCC3)c2cc(Cl)ccc2O1` (stereo unspecified), the activation was inactive: -33%.

Take `COc1ccc(CCNC(=O)CSc2cn(CCNC(=O)c3cccc(C(F)(F)F)c3)c3ccccc23)cc1OC`: the activation was active: 104%.

In the case of `Cc1oc(-c2ccccc2Cl)nc1CS(=O)CC(=O)NCc1ccc(Cl)cc1` (stereo unspecified), the activation is inactive: -1.69%.

With `Cc1ccc(S(=O)(=O)N2CCc3cc(C(=O)Nc4ccc(C(F)(F)F)cc4)ccc32)cc1`, the activation is inactive: -3.69%.

With `O=C(CSc1nc2c([nH]c3ccccc32)c(=O)n1-c1cccc(Cl)c1)NCC1CCCO1` (stereo unspecified), the activation was inactive: -3.98%.

As to `COc1ccc(CNS(=O)(=O)c2cc3c4c(c2)CCN4C(=O)CC3)cc1`, the activation was inactive: -17.7%.

For the compound `Fc1ccc(-c2ccc(CNCCSc3nnnn3-c3ccccc3)o2)cc1`, the activation was inactive: 23%.

`O=S(=O)(Nc1nc2ccccc2nc1Nc1ccccc1Br)c1ccccc1`: the activation was inactive: -1.82%.

Take `Cc1ccc(COc2ccc(-c3cc(C(F)(F)F)n4nc(C)cc4n3)cc2)cc1`: the activation was inactive: -3.03%.

As for `CC1CCc2c(sc(NC(=O)c3cc(-c4cccc(Cl)c4)on3)c2C(N)=O)C1` (stereo unspecified), the activation is inactive: -12.1%.

As to `Cc1ccc(NC(=O)Cc2coc3ccc(C(C)C)cc23)c(C)c1`, the activation was inactive: 4.54%.

Take `CCOc1ccc(-c2cn(-c3ccc(C)cc3)c(SCC(=O)Nc3ccc(C)cc3)n2)cc1`: the activation was inactive: -22.1%.

`COc1cccc(CNC(=O)C(C)n2ncn3cccc3c2=O)c1OC` (stereo unspecified): the activation is inactive: 1.81%.

In the case of `O=C(Cn1c2ncccc2c(=O)n1-c1ccccc1)NCc1ccccc1Cl`, the activation was inactive: -6.41%.

As to `Cc1cc(N2CCCCC2)nc2ccc(NC(=O)/C=C/c3ccc(OC(C)C)cc3)cc12`, the activation was inactive: 1.38%.

For the compound `COC(=O)c1c(Oc2ccc(OC)cc2)nnc(-c2ccccc2)c1-c1ccccc1`, the activation is inactive: -20.3%.

Turning to `CCCCOc1ccc(C2=NC(c3cccs3)=Nc3ccc(CC)cc3N2)cc1`, the activation is inactive: -24.5%.

As to `CC(C)CC(=O)Nc1nc2nc(-c3ccccc3)cc(=O)n2[nH]1`, the activation is inactive: -8.63%.

As to `Cc1ccc(NC(=O)c2cnc(N3CCCCC3)c3ccccc23)c(C)c1`, the activation is inactive: -2.62%.

For `COCCCNC(=O)C1CCN(C(=O)c2cnn(-c3ccccc3)c2-n2cccc2)CC1`, the activation is inactive: -25.9%.

`CCCN1CCN(C(=O)Cn2c(-c3cccs3)cc3ccccc32)CC1`: the activation is inactive: -11.4%.

For the compound `Cc1cccc(NC(=O)N2CCN(C(=O)c3nsc4ccccc34)CC2)c1C`, the activation is inactive: -8.64%.

On to `COc1ccc(CNC(=O)CCCn2nc(C)c3sc4ccccc4c3c2=O)cc1OC`, for which the activation is inactive: -6.24%.

Turning to `CCOc1ccccc1CNC(=O)c1ccc(N2Cc3ccccc3Oc3ncccc32)s1`, the activation is inactive: -16.9%.

For the compound `CCOC(=O)c1ccc(O)c(O)c1`, the activation is inactive: 41.1%.

On to `Cc1ccc(N2C(=O)NC(NS(=O)(=O)c3ccccc3)(C(F)(F)F)C2=O)cc1C` (stereo unspecified), for which the activation was inactive: 10.8%.

Turning to `COc1cccc(NC(=O)CN2C(=O)CSc3ccc(S(=O)(=O)N4CCCC4)cc32)c1`, the activation is inactive: -20.6%.

As to `Cc1ccc2c(CC(=O)Nc3ccc(S(=O)(=O)N4CCCCC4C)cc3)coc2c1` (stereo unspecified), the activation was inactive: -14.6%.

As to `Cc1ccc(CNC(=O)c2cccn2-c2nnc(N3CCCC3)s2)cc1`, the activation is inactive: 6.79%.

`COc1ccc(N2CCN(C(=O)c3cnn(-c4ccc(F)cc4)c3-n3cccc3)CC2)cc1`: the activation is inactive: 6.6%.

As to `COC(=O)COc1ccc2oc(-c3ccc(OC)cc3)cc(=O)c2c1`, the activation was inactive: -1.8%.

With `Clc1ccc2c(c1)-c1c(cnc3cc(-c4ccccc4)nn13)CO2`, the activation is inactive: 4.5%.

On to `O=C(Nc1ccc(Br)cc1F)C1CCN(c2nc3ccccc3[nH]2)CC1`, for which the activation is inactive: -19.4%.

With `CCC1CCCCN1CCCNC(=O)CN1C(=O)c2cccnc2Oc2ccc(C)cc21` (stereo unspecified), the activation was inactive: -3.45%.

Regarding `Cc1ccc(CNC(=O)CCc2c(C)c3ccc(O)c(C)c3oc2=O)cc1`, the activation was inactive: -0.0146%.

With `CSc1cccc(Nc2cc(C(=O)NCCc3ccc(Cl)cc3)c3ccccc3n2)c1`, the activation is inactive: -4.59%.

As to `CCOc1ccc(C(=O)Nc2nnc(S(=O)(=O)Nc3ccccc3)s2)cc1`, the activation is inactive: 8.75%.

Turning to `CCOc1cc2[nH]c(=O)n(CCCCC(=O)N3CCN(c4ccc(OC)cc4)CC3)c(=O)c2cc1OCC`, the activation was inactive: -8.14%.

Consider `O=C1CCCc2cc(S(=O)(=O)N3CCCC(C(=O)Nc4ccc(F)c(Cl)c4)C3)ccc2N1` (stereo unspecified), for which the activation is inactive: 34.5%.

For `CCOc1ccc2nc(N3CCC(C(=O)Nc4ccccc4CC)CC3)sc2c1`, the activation was inactive: 10.1%.

As for `CC1CN(C(=O)N2CCC(C(=O)N3CCN(c4ccccc4)CC3)CC2)c2cc(Cl)ccc2O1` (stereo unspecified), the activation was inactive: -19.4%.

`Cc1cc(C)cc(NC(=O)c2cc(C)nc3c2c(C)nn3-c2ccccc2)c1`: the activation was inactive: 24.7%.

With `CCOc1ccc(NC(=O)c2cc3c(C)nn(-c4ccccc4)c3s2)cc1`, the activation is inactive: -18.6%.

With `Cc1ccc(OCC(=O)N(Cc2ccc(Cl)cc2)Cc2ccco2)cc1C`, the activation is inactive: -27.1%.

As to `COc1ccc(NC(=O)Cn2c(=O)n(CCC(C)C)c(=O)c3cccnc32)cc1Cl`, the activation is inactive: -8.89%.

As to `COc1cccc(-c2nc(SCC(=O)NCC3CCCO3)c(-c3ccc(C)cc3)[nH]2)c1` (stereo unspecified), the activation is inactive: -20.9%.

`CCOc1ccc(C2CC(=O)NC(NC(=O)c3ccc(C)cc3)=N2)cc1` (stereo unspecified): the activation was inactive: -4.86%.

In the case of `COc1ccc(NC(=O)c2ccc3c(=O)n4nc(Nc5ccccc5C)sc4nc3c2)cc1Cl`, the activation was inactive: 16.2%.

As to `Cc1ccccc1Nc1cc(C(=O)NC2CCCC2)c2ccccc2n1`, the activation was inactive: 3.72%.

As to `CC(C)NC(=O)C1CCC(Cn2c(=O)c3sccc3n(CC(=O)N3CCCC3)c2=O)CC1` (stereo unspecified), the activation is inactive: 2.15%.

Consider `CCN(C(=O)c1cc2c(=O)oc3ccccc3c2s1)c1ccc(C)c(C)c1`, for which the activation is inactive: -6.49%.

As to `Cc1ccc(Cn2c(C(=O)O)c(CNC3CCCCC3)c3ccc(C)cc32)cc1`, the activation was inactive: -13.1%.

On to `CCCOc1ccc(NC(=O)CC2C(=O)N(c3ccccc3)C(=O)N2Cc2ccc(F)cc2)cc1` (stereo unspecified), for which the activation was inactive: -25.7%.

With `Cc1cccc(Cn2cc(/C=C(/C#N)C(=O)Nc3cccc(Cl)c3)c3ccccc32)c1`, the activation was inactive: -13%.

Consider `CCOc1ccccc1NC(=O)Cn1c(=O)n(Cc2nc(C)no2)c(=O)c2ccccc21`, for which the activation is inactive: -8.53%.

For `Cc1ccc(C(=O)NCC(c2ccc3c(c2)OCO3)N2CCN(c3ccc(F)cc3)CC2)cc1` (stereo unspecified), the activation is inactive: -31.7%.

Consider `Cc1ccccc1C(=O)Nc1ccccc1OCc1cc(=O)n2ccccc2n1`, for which the activation is inactive: 2.3%.

As to `Cc1cccc(CS(=O)(=O)Cc2ccc(C(=O)NCc3ccccc3)o2)c1`, the activation was inactive: -10.1%.

With `CCOc1ccc(CCNC(=O)c2c(C)oc3ncn(CC(C)C)c(=O)c23)cc1`, the activation is inactive: 29.4%.

For `Cc1cccc(-c2nc(S(=O)(=O)c3ccc(Cl)cc3)c(N3CCCCCC3)o2)c1`, the activation is inactive: -17.2%.

Consider `CCN(CC)c1nc2c(S(=O)(=O)c3ccccc3)nnn2c2ccc(Cl)cc12`, for which the activation was inactive: -25.6%.

With `CCOc1ccccc1CNC(=O)c1nc(-c2ccc(Cl)cc2)n2c1CCCCC2`, the activation was inactive: -22.6%.

As for `Clc1ccccc1CNc1ncnc2c1nc1n2CCCC1`, the activation is inactive: 0.267%.

For the compound `CCOc1ccc(C(=O)NCc2nnnn2-c2ccc(C)c(C)c2)cc1OCC`, the activation was inactive: 0.649%.

Take `Cc1ncc(COP(=O)(O)O)c(C=O)c1O`: the activation is inactive: 19.9%.

For `CCc1nn(CC(=O)NCC(C)c2ccccc2)c(=O)c2cc3occc3n12` (stereo unspecified), the activation is inactive: 5.49%.

For `Cc1cc(C)c(NC(=O)CCN2C(=O)c3ccccc3Sc3ncccc32)c(C)c1`, the activation is inactive: -13.3%.
